This is one part of the list.

The assay concerns the target T1, OsWOX13 (Oryza sativa, UniProt Q5QMM3 1-267).
T1 sequence: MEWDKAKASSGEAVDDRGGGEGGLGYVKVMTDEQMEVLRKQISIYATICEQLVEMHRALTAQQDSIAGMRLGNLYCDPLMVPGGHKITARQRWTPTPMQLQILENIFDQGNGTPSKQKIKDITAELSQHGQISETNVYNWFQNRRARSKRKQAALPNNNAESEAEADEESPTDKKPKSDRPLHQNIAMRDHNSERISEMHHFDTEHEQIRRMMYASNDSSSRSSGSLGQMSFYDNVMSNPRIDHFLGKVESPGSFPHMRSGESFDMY
As to the kind of experiment: protein-binding microarray (RPBM); PBS, 2% BSA, 51.3 ng/ul salmon testes DNA, 50 uM zinc acetate, 200 nM TF, 25 C, 1 h; high values mean tight binding. Conditions: protein: recombinant; tags: N-terminal polyhistidine and DsRed monomer fusion (pET32a); label: CyDye5-dUTP incorporated in the synthesized complementary strand; 3' TTTTT single-stranded linker to array surface; dsDNA, one strand shown. The essentials:
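For the binding signal, per-feature fluorescence intensity was read in arbitrary units on an Axon 4000B scanner. Before scanning, a 2% BSA-blocked custom Agilent array made double-stranded with Cy5-dUTP was washed after 1 h at 25 °C with 200 nM protein and 50 µM zinc acetate. The proteins were Ni–NTA-purified transcription factors with N-terminal polyhistidine and DsRed fusions, expressed in E. coli BL21-CodonPlus.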
As to “GTTTAATTTGTGATCCATGATAGTGAGAGTCGATTTGTGACGGAGTCACCTAGTGCAG”, the binding signal is 19000 fluorescence intensity (a.u.).

Regarding “CTACTATCAATCGACCAATTCCAATCTCATCGTTACAGGACGGAGTCACCTAGTGCAG”, the binding signal is 4190 fluorescence intensity (a.u.).

As for “TTATTGTGATAACTGCCATTGATAAGGACAGAGAAGTTAGCGGAGTCACCTAGTGCAG”, the binding signal was 3160 fluorescence intensity (a.u.).

Take “CCTAATTAATCCATAATTAGAGAATGTTTACTGTAACATCCGGAGTCACCTAGTGCAG”: the binding signal is 50600 fluorescence intensity (a.u.).

Take “TGAAAGAAAATTAATTATCTACTTCATTCGCTCGGATACTCGGAGTCACCTAGTGCAG”: the binding signal was 18800 fluorescence intensity (a.u.).

As for “GCAATAATTGCTAACCGTGCCGTTCTTATTCCCCAATCATCGGAGTCACCTAGTGCAG”, the binding signal was 46100 fluorescence intensity (a.u.).

Turning to “AAGAGATGATGACGATAACTGTGGAAGTGGCAGACTGGCACGGAGTCACCTAGTGCAG”, the binding signal was 8880 fluorescence intensity (a.u.).

With “GATTAATTAGGTTTAATAAATTCGTCTCGCAGTTACAAGGCGGAGTCACCTAGTGCAG”, the binding signal was 35200 fluorescence intensity (a.u.).

For the sequence “AATAAATCATTACAACCAGTAAATGTGATGTCAATAGATGCGGAGTCACCTAGTGCAG”, the binding signal is 11900 fluorescence intensity (a.u.).

Take “ATTAATTAAAATCCAGCTGTAAGGTAAGGCCATTCCAAGCCGGAGTCACCTAGTGCAG”: the binding signal was 15500 fluorescence intensity (a.u.).

“CACGTTAAAATTGAAAGTTTAATTGAAATTGAAACGATATCGGAGTCACCTAGTGCAG”: the binding signal was 7700 fluorescence intensity (a.u.).

For “CACTATCATATTGGGTAATTAACTTGGGTAAACTTCATCGCGGAGTCACCTAGTGCAG”, the binding signal is 6120 fluorescence intensity (a.u.).

For the sequence “AATAATTATATTGTGAGTAAGCTGAAATAAGAAACTACGTCGGAGTCACCTAGTGCAG”, the binding signal is 27300 fluorescence intensity (a.u.).

Take “ACTAACTAATTGTGAATATCTCATTCTCACCGATGCTAAACGGAGTCACCTAGTGCAG”: the binding signal is 21400 fluorescence intensity (a.u.).

For the sequence “AAACAAATAGACATGATAGATTAATATGAAATATGTCATTCGGAGTCACCTAGTGCAG”, the binding signal is 23800 fluorescence intensity (a.u.).

Turning to “AAGTACAATTTGTGTAATTGATAATTCGAGGAGTATTAGGCGGAGTCACCTAGTGCAG”, the binding signal is 29700 fluorescence intensity (a.u.).

Regarding “AACCACAATAATCACACACTGATTCCACCGCCGGCTTCTCCGGAGTCACCTAGTGCAG”, the binding signal was 4530 fluorescence intensity (a.u.).

As to “GGATAAAATTAGAATTGATGACCACCATATACTATAAGGGCGGAGTCACCTAGTGCAG”, the binding signal is 15200 fluorescence intensity (a.u.).

Take “CGAAGATTGAGTCCTTTGAAGCCGAGCTCTCCATGGCCATCGGAGTCACCTAGTGCAG”: the binding signal was 17100 fluorescence intensity (a.u.).

Take “AACCAATTTAGCCGATAATTCGGCTAGTCATTCCATAATACGGAGTCACCTAGTGCAG”: the binding signal is 7620 fluorescence intensity (a.u.).

On to “ACTAAAATTTTGATATTACTAAATTTTGGAAAGATTTATTCGGAGTCACCTAGTGCAG”, for which the binding signal was 3970 fluorescence intensity (a.u.).

Consider “TACAAATTTGCAGTCAGAAGACTTAGCAACAAAGTACTGCCGGAGTCACCTAGTGCAG”, for which the binding signal is 10300 fluorescence intensity (a.u.).

As for “TCCAACACTCAATCAGAAAAGCGAGCCCTGGGCCTTGTTGCGGAGTCACCTAGTGCAG”, the binding signal is 4820 fluorescence intensity (a.u.).

With “AAGTACACATGATTGAGTTGTCGCGGTATATACCTCCTCCCGGAGTCACCTAGTGCAG”, the binding signal is 15600 fluorescence intensity (a.u.).

As to “GCCCTGGCCAATTGAGCCCAATCAAGATAGTTCGGCCCATCGGAGTCACCTAGTGCAG”, the binding signal is 3400 fluorescence intensity (a.u.).

For “GCACTAACATAACTGATTAACTGGAATACTGGATCTCTATCGGAGTCACCTAGTGCAG”, the binding signal was 25800 fluorescence intensity (a.u.).

With “AATCGAAGATTGACGCCGGCAGCCAAAGTTGGAGAAGACACGGAGTCACCTAGTGCAG”, the binding signal was 4760 fluorescence intensity (a.u.).

Take “CCAAGTTAGCAGTTGGCAGTTGATTGGCACGTCGGTCAAACGGAGTCACCTAGTGCAG”: the binding signal is 8380 fluorescence intensity (a.u.).

As to “GACGTCTTGATTGGGAGATTAGCCTTGGCCGCGTGGAATCCGGAGTCACCTAGTGCAG”, the binding signal is 41200 fluorescence intensity (a.u.).

In the case of “CCTTAATTGTGGGGCTGACTGCTATTTTCTATATCATGTGCGGAGTCACCTAGTGCAG”, the binding signal is 56000 fluorescence intensity (a.u.).

Consider “CCAGACTGCCTAACTGTACAGTCACGGCGCCATCTCGGACCGGAGTCACCTAGTGCAG”, for which the binding signal was 4820 fluorescence intensity (a.u.).

With “CACCATAAATTATCGCGTACTCAGTTCATACCACAAGATACGGAGTCACCTAGTGCAG”, the binding signal is 7400 fluorescence intensity (a.u.).

Regarding “AATAAGTCCATGATTAGCTGTAAGTGCTACAGTAACCCACCGGAGTCACCTAGTGCAG”, the binding signal is 9230 fluorescence intensity (a.u.).

“ATTGTAACATAATTATCACTCCTAGGTTTATTTTCAAGCACGGAGTCACCTAGTGCAG”: the binding signal was 23500 fluorescence intensity (a.u.).

Take “CAATAGGGAATAATTAACACCTTACTGTAAATGACAGTTGCGGAGTCACCTAGTGCAG”: the binding signal was 5230 fluorescence intensity (a.u.).

Take “TAAAGATATGAAGATTGTTGATTGCTGAAGTTTATGAAAGCGGAGTCACCTAGTGCAG”: the binding signal was 4870 fluorescence intensity (a.u.).

For the sequence “GGTTGTTAATTAGAATAGATGGGACCTGAAAGCTTCAGCTCGGAGTCACCTAGTGCAG”, the binding signal is 31300 fluorescence intensity (a.u.).

On to “TTTCAATCCGATTGGCGACGGGCGCCGAGGGATTTAGCGCCGGAGTCACCTAGTGCAG”, for which the binding signal is 3250 fluorescence intensity (a.u.).

Take “GGAGGGAGGGAGTATCAATCATTTGAAGAGTTCAGTGACACGGAGTCACCTAGTGCAG”: the binding signal is 8040 fluorescence intensity (a.u.).

Consider “TAATATTTATAATTAGTGTCCAAACATCCGATGTGATAGGCGGAGTCACCTAGTGCAG”, for which the binding signal was 5870 fluorescence intensity (a.u.).

With “GTCTAAATGGTTTCAAACAAATAATTAAGAAGGACATCTACGGAGTCACCTAGTGCAG”, the binding signal is 4200 fluorescence intensity (a.u.).

Regarding “GTCTAGAGGTTAATTTGCACTCATCCAATAATTTAGAGGGCGGAGTCACCTAGTGCAG”, the binding signal is 7060 fluorescence intensity (a.u.).

For the origin of these results see paper PMC7819943, “Rice protein-binding microarrays: a tool to detect cis-acting elements near promoter regions in rice”.
